The other results are listed elsewhere or left out. Repeats are few or missing, and single values can be far off.

This experiment has as its system Candida albicans DPL-15. Briefly: growth (OD600) after compound treatment (apparently relative to screen median) (relative growth (fraction; screen median 1.02)); DPL-15 is a caspofungin-resistant clinical isolate; higher = more fungal growth (less antifungal activity). As to conditions: 25 µM; RPMI 1640; 48 h; 30 °C.
Consider `CC#Cc1cc(O)c(C)c(O)c1`, for which the growth amounted to 1.1.
With `CCOC(=O)C1C=CC=CC=C1`, the growth stood at 1.09.
As for `COc1cc(CNC(=O)CCCCc2ccccc2)ccc1O`, the figure is 0.934.
In the case of `CCNC1=NC(c2ccc(F)cc2)C(C(=O)OC)=C(C)N1Cc1cccc(C(F)(F)F)c1` (centres undefined), the growth came to 0.975.
As for `COC(=O)[C@@H]1[C@@H](c2ccccc2)[C@]2(c3ccc(OC)cc3)Oc3cc(OC)cc(OC)c3[C@@]23NC(C2CCC2)=N[C@@]13O`, the growth is 0.86.
Regarding `CO[C@@H]1[C@H](O)CC[C@]2(O)CN(c3ccc4c(c3)OCO4)[C@](C)([C@H](O)CC=C(C)C)[C@@H]12`, the growth was 0.868.
In the case of `CC(C)=CCc1cc(OCC(=O)NCC(=O)NCc2ccccc2O)cc2oc3cccc(O)c3c(=O)c12`, the growth came out at 1.08.
With `COC(=O)[C@H]1[C@@H](O)[C@@]2(O)c3c(OC)cc(OS(=O)(=O)c4ccc(C)cc4)cc3O[C@@]2(c2ccc(OC)cc2)[C@@H]1c1ccccc1`, the growth came out at 1.11.
As for `COc1cccc(Oc2cc(F)c(F)cc2C(=O)O)c1OCc1ccccc1`, the figure is 1.04; as for `COC(=O)C1=C(C)N(Cc2ccc(C(F)(F)F)cc2)C(NCc2ccncc2)=NC1c1ccc(Cl)cc1` (centres undefined), 1.01; as for `COC(=O)c1c(Br)cc(OC)cc1OC`, 1.01.
Consider `O=C1N[C@H](c2ccccc2)COCc2cn[nH]c2-c2cccc(n2)C(=O)N2C[C@H](O)C[C@@H]12`, for which the growth was 1.09.
As for `COC(=O)[C@@H](N[C@H](/C=C/c1ccccc1)[C@@H](O)Cc1ccccc1)c1ccccc1`, the figure is 0.979.
On to `COC(=O)C1=C(C)[C@@]2(C)C[C@@H]3[C@@]4(C)CC[C@H](O)C(C)(C)[C@@H]4CC[C@@]3(C)[C@@](C)(C1=O)C2=O`, for which the growth turned out to be 1.08.
Regarding `c1ccc(CN2CCc3nc(-c4ccccc4)c(-c4ccccc4)cc3C2)cc1`, the growth is 0.962.
As for `CC(=O)C1=C(C)NC(=O)NC1c1ccccc1` (centres undefined), the growth worked out at 1.06.
Take `CCO[C@@H]1CCN(C(=O)c2c(O)cc(O)cc2Nc2cc(C)nn2C)C1`: the growth is 1.1.
Then `O=C(O)Cc1cccc2c(=O)c3ccccc3oc12`, with 1.15.
Take `COc1cc(OC)c(C(=O)[C@@H]2CC=C(CCC=C(C)C)C[C@H]2c2ccccc2)c(OC)c1`: the growth turned out to be 1.07.
Take `COc1ccc(C2=C[C@@]3(c4ccc5c(c4)OCO5)[C@@H]4C(=O)[C@](C)(O)[C@@H](C=C4C(C)C)[C@H]3C2=O)cc1`: the growth stood at 1.19.
With `CCCCCC#CCN1C(=O)NC(c2ccccc2)C(C(=O)OC)=C1C` (centres undefined), the growth amounted to 0.954.
For the compound `C#CCC(C)(C)CNC(=O)CC1(CNC(=O)c2cccc(CO)c2)CCCCC1`, the growth was found to be 1.02.
For the compound `COc1ccc(C2=C(C(=O)NCC(C)C)C3C(N2)C(=O)C[C@@H](c2ccccc2)[C@@H]3C)cc1` (some centres undefined), the growth was 0.962.
As for `COc1ccc(N2C(=O)c3[nH]nc(CC(C)C)c3C2C2CCCCC2)cn1` (centres undefined), the figure is 0.966.
Consider `CC(C)CCc1c(O)cc(O)c(C(=O)CC(C)C)c1O`, for which the growth is 1.09.
As to `OC1c2ccccc2-c2c1c1c3c(ccc4c3c2OCO4)OCO1` (centres undefined), the growth was determined as 0.9.
In the case of `C[C@H]1CC(O)=C2C(=O)c3c(O)cccc3O[C@@]2(C(=O)O)[C@@H]1O`, the growth worked out at 1.83.
Consider `CC(C)(C)NS(=O)(=O)NCCC1CCCC1`, for which the growth amounted to 1.2.
For the compound `Cc1cc(C)cc(-n2nc(CC(C)C)c3c2C(=O)NC3c2ccc3c(c2)OCO3)c1` (centres undefined), the growth stood at 0.746.
In the case of `Cc1cc(C)cc(-n2nc(C)c3c2C(=O)NC3c2ccc(Br)cc2)c1` (centres undefined), the growth was 0.924.
In the case of `COC(=O)[C@@H]1[C@@H](C(=O)OC)[C@H](c2cc(OC)c(OC)c(OC)c2)[C@H]1c1cc(OC)c(OC)c(OC)c1`, the growth was 1.14.
On to `CC1=C[C@H](COc2ccc(Br)cc2)O[C@]2(C1)C(=O)Nc1ccccc12`, for which the growth came to 0.809.
On to `CC(C)Cc1n[nH]c2c1C(c1cccc(C(F)(F)F)c1)NC2=O` (centres undefined), for which the growth was 0.719.
For `COC(=O)C1=C(C)C(=O)[C@]2(O)Oc3c(C)c(O)c(C(=O)OC)c(C)c3[C@]2(C)C1=O`, the growth turned out to be 1.04.
`CCN1C(=O)N[C@@H](c2ccc(Br)cc2)C(C(C)=O)=C1C`: the growth is 0.976.
Regarding `CCN(CC)C(=O)c1c(O)cc(O)cc1Nc1cc(-c2ccccc2)nn1Cc1ccc(OC)cc1`, the growth is 0.979.
As for `COc1ccc(Cn2nc(C)cc2Nc2cc(O)cc(O)c2C(=O)N(C)CC=C(C)C)cc1`, the growth is 1.13.
In the case of `c1ccc(-c2nc3cnncc3[nH]2)cc1`, the growth was 1.16.
Then `C[Si](C)(C)C#Cc1cc(O)c2c(=O)c3ccccc3oc2c1`, with 1.1.
`CC(C)(C)Oc1cccc(-c2ccccc2)n1`: the growth is 1.04.
As to `CCCCCOS(=O)(=O)Nc1ccc2sccc2c1`, the growth is 0.938.
Consider `C[Si](C)(C)C#CCOc1c(-c2ccccc2)oc2ccccc2c1=O`, for which the growth amounted to 0.961.
Regarding `CO[C@@H]1[C@H](O)CC[C@]2(O)CN(c3cccc(C#N)c3)[C@@H](CC=C(C)C)[C@](C)(O)[C@@H]12`, the growth came out at 0.909.
As for `COc1ccc(N2C(=O)c3c(c(C)nn3C)C2c2ccccc2)cc1` (centres undefined), the growth came to 0.98.
With `COc1ccc(C[C@H](CO)[C@@H](CO)Cc2ccc(OC)cc2)cc1`, the growth came to 1.05.
`C=CCN1C(=O)CC[C@@]23C1=NC(C(=O)OC)=C(C(=O)OC)[C@@H]2N(CC#CC)c1ccccc13`: the growth turned out to be 0.918.
For the compound `CS(=O)(=O)Oc1c(C[C@@]23CCCCC2=Nc2ccc(C(F)(F)F)cc23)occc1=O`, the growth was 1.17.
With `COc1ccc(CCn2ccc3nc4cc(O)cc(O)c4c(=O)n32)cc1`, the growth came out at 1.21.
Turning to `CC(C)Cc1n[nH]c2c1C(c1ccccc1Cl)N(c1ccc(-n3ccnc3)cc1)C2=O` (centres undefined), the growth is 0.989.
In the case of `COC(=O)Cc1nnn2c1[C@H](C)[C@@H](OC)C2`, the growth was 1.23.
On to `CCc1ccccc1-n1nc(CC(C)C)c2c1C(=O)NC2c1ccc(F)cc1` (centres undefined), for which the growth amounted to 1.01.
For `O=C1C=C(c2ccccc2)CC1c1ccc([N+](=O)[O-])cc1` (centres undefined), the growth worked out at 0.987.
`COc1cc([C@H]2c3c(OC)c(O)c4[nH]c5ccccc5c(=O)c4c3[C@@H]3C=C(C)CC(C)(C)[C@H]23)c2c(=O)c3ccccc3[nH]c2c1O`: the growth turned out to be 0.916.
Consider `[NH3+]c1nc2cnncc2[nH]1`, for which the growth amounted to 1.01.
For `CC(C)Cc1nn(-c2ccc(F)cc2)c2c1C(c1ccc(Br)cc1)NC2=O` (centres undefined), the growth worked out at 1.09.
As to `COC(=O)C/C=C/[C@H](C)[C@@H](NC(=O)[C@H](NC(=O)OC(C)(C)C)C(C)C)c1ccccc1`, the growth was determined as 1.06.
As to `COc1ccc([C@H]2OC[C@H](Cc3ccc4c(c3)OCO4)[C@@H]2CO)cc1OC`, the growth amounted to 1.03.
Turning to `CCOc1cc2c(cc1OCC)CN(CCc1ccc(NC(=O)c3cccc4c(=O)c5cccc(OC)c5[nH]c34)cc1)CC2`, the growth turned out to be 1.05.
As to `CC(=O)C1=C(C)NC(=O)NC1c1cccs1` (centres undefined), the growth amounted to 0.941.
For `COc1ccc2c(c1)C[C@H](C)O[C@@]21C(=O)Nc2ccccc21`, the growth was determined as 0.862.
`COc1ccc([C@@]23Oc4cc(OC)cc(OC)c4[C@]2(O)[C@H](O)[C@H](C(=O)N(C)C)[C@H]3c2ccc(O)c(OC)c2)cc1`: the growth worked out at 1.26.
As for `COC(=O)C1(c2ccccc2)C=CC=C(OC)C=C1` (centres undefined), the growth came out at 1.2.
Then `CCNC(=O)[C@H]1[C@H](C(=O)NCC)[C@@H](c2ccc(OC)c(OC)c2OC)[C@@H]1c1ccc(OC)c(OC)c1OC`, with 0.922.
On to `CC(C)C1=NCCN(C)C2=C1C(c1ccc(F)cc1)N(c1ccccc1)C2=O` (centres undefined), for which the growth amounted to 1.02.
`Cc1ccc(S(=O)(=O)Oc2c(CC3(C)C(c4ccccc4)=Nc4ccc(F)cc43)occc2=O)cc1` (centres undefined): the growth worked out at 1.01.
On to `Cc1nn(C)cc1Nc1cc(O)cc(O)c1C(=O)N1CC[C@@H](F)C1`, for which the growth is 1.09.
Regarding `C=CCN1C(=O)c2[nH]nc(COC)c2C1c1cccc(C(F)(F)F)c1` (centres undefined), the growth is 1.02.
As for `CC(C)=CC[C@H]1C[C@@]23C[C@H](CC=C(C)C)C(C)(C)[C@@](CC=C(C)C)(C(=O)C(C(=O)c4ccccc4)=C2OC1(C)C)C3=O`, the figure is 1.08; as for `CC(C)(C)NS(=O)(=O)OCCCCCO[Si](C)(C)C(C)(C)C`, 1.09.
Then `CC1(Cc2occc(=O)c2OS(C)(=O)=O)C(c2ccccc2)=Nc2ccc(F)cc21` (centres undefined), with 1.03.
Regarding `COC(=O)[C@@]12Oc3cccc(O)c3C(=O)C1=C(O)C[C@H](C)[C@H]2O`, the growth is 1.12.
With `O=C1NC(c2ccccc2)c2c1nn(-c1ccccc1)c2-c1ccccc1` (centres undefined), the growth was found to be 0.925.
Consider `O=C(NCc1nnc(-c2ccccc2)c(-c2ccccc2)n1)OCc1ccccc1`, for which the growth was 0.836.
In the case of `CC(C)CCCC(C)CCN(C(=O)OC(C)(C)C)S(=O)(=O)NCC(F)(F)F` (centres undefined), the growth is 1.04.
For `[NH3+]c1nc2nccnc2[nH]1`, the growth came out at 1.07.
As to `COc1ccc(N2C(=O)C3=C(C(C)=NCCN3)C2c2cccc(C(F)(F)F)c2)cc1` (centres undefined), the growth came to 0.917.
With `COc1ccc(N2C(=O)c3[nH]nc(CC(C)C)c3C2c2ccncc2)cc1` (centres undefined), the growth was 0.85.
Take `O=S(=O)(Nc1ccc(C(F)(F)F)cc1)OCCCc1ccccc1`: the growth is 0.828.
Consider `Cc1ccc2[nH]c3nc(CCCn4ccnc4-c4ccccc4)nnc3c2c1`, for which the growth worked out at 1.01.
Then `Nc1ccc(CC(=O)N2Cc3ccccc3C2)cc1`, with 1.13; and `CC1=NCCNC2=C1C(c1ccc(Br)cc1)N(c1ccccc1)C2=O` (centres undefined), with 1.08.
Turning to `COc1cc(N2C(=O)c3[nH]nc(CC(C)C)c3C2c2ccccc2Cl)cc(OC)c1OC` (centres undefined), the growth turned out to be 1.16.
`CN1CCN=C(c2ccccc2)C2=C1C(=O)NC2c1ccccc1` (centres undefined): the growth stood at 0.947.
As for `COc1ccc([C@]23[C@H](c4ccccc4)C[C@@H](O)[C@@]2(O)c2c(F)cccc2N3C)cc1`, the growth was found to be 1.07.

(Values after the supplement of paper PMC10986608.)
